Test results as given in PMC6919601, “Identification of Plasmodium dipeptidyl aminopeptidase allosteric inhibitors by high throughput screening” (PLoS ONE, 2019).
Values joined by “and” are separate entries in the source; they are usually repeats but may differ in a detail not shown here. Equal entries are not always repeated. Screen size: about 110,000 compounds; about 230 (0.21%) showed an effect of 50% or more. This is one part of the list.

Target: DPAP1 (Plasmodium falciparum, UniProt Q8IIJ9)
Experiment: primary screen, percent inhibition; read by cleavage of a fluorogenic dipeptide substrate; higher = more effect of the substance
Set-up: species or system P. falciparum D10 trophozoite lysates; single well
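Further: 30 min substrate incubation versus DMSO and 10 µM JCP410 controls.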

DPAP1, sequence (Q8IIJ9 whole entry, looked up): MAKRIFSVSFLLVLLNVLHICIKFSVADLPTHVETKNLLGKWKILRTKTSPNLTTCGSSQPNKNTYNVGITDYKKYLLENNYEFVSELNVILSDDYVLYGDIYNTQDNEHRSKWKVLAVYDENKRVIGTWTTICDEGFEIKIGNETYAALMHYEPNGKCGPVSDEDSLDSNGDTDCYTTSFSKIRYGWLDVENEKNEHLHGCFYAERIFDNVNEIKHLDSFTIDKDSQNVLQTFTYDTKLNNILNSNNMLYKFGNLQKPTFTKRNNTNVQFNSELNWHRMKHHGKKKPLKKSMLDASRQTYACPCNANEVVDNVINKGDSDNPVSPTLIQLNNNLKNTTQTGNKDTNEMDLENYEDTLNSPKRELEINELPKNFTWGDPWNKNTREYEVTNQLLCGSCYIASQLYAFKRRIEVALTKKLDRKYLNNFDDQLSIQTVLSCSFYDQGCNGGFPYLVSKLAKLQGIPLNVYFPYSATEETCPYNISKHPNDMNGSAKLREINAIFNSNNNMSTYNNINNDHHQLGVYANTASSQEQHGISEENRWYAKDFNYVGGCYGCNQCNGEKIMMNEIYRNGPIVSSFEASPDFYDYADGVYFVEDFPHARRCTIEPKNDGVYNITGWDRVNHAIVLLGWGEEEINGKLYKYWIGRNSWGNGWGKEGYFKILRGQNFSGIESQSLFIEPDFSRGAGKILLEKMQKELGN

SMILES	% Inhibition @ 10 uM
COc1cc(OC)c(OC)cc1CN1CCN(C(=O)c2ccccc2F)CC1	-15.2%
COC(=O)c1ccc(Oc2cc(C)nc(NCc3ccccc3)n2)cc1	-6.87%
C=CCOC(=O)C1=C(C)OC(N)=C(C#N)C1c1cccc2ccccc12 (centres unmarked)	2.8%
CCOc1ccc(CNC(=O)C(C)n2nc(C)c3c(C)n(-c4ccccc4)nc3c2=O)cc1 (centres unmarked)	-0.665%
O=C(/C=C(/c1ccc(Cl)cc1)n1cncn1)c1ccccc1	-3.69%
O=C(CN1CC(c2ccccc2)CC1=O)NCCC1=CCCCC1 (centres unmarked)	-3.41%
CCn1ncc(Br)c1C(=O)Nc1cccc(C(=O)O)c1	0.512%
CCCn1c(=O)c2c(nc3n2CCN3Cc2ccco2)n(C)c1=O	-1.98%
COc1ccccc1-c1c(C)nn2c(SCC(=O)N3CCOCC3)cc(C)nc12	-3.47%
CS(=O)(=O)c1ccc2nc(NC(=O)Nc3ccc(Cl)c(Cl)c3)sc2c1	2.38%
CCC(=O)/N=c1/n(C)c2ccccc2n1CCOc1ccccc1	0.512%
CCO/C(O)=C1/C(C)=Nc2ncnn2C1c1cccnc1 (centres unmarked)	-1.62%
CCOc1ccc(NC2OC(CO)C(O)C(O)C2O)c([N+](=O)[O-])c1 (centres unmarked)	-0.216%
Cc1ccc2cc3cc(C(=O)N4CCN(C(=O)c5ccco5)CC4)oc3nc2c1	-1.54%
COc1cccc(CNCCc2cccc(Cl)c2)c1OC	-3.75%
Cc1c(/N=C(\S)NCCO)c(=O)n(-c2ccccc2)n1C	-6.22%
Cc1nn(CCCC(=O)N2CCc3ccccc3C2)c(=O)c2c1sc1ccccc12	-4.09%
COc1ccc(OC)c(C2CC(c3ccc(C)cc3)Nc3ncnn32)c1 (centres unmarked)	-7.08%
CNC(=O)c1ccc2nc(N3CCC(C)CC3)sc2c1	1.03%
CCOC(=O)N1CCN(C(=O)C2CCN(c3nnc(-n4cccc4)s3)CC2)CC1	2.56%
O=C(CCc1ccccc1)Nc1ccc(S(=O)(=O)Nc2nccs2)cc1	0.408%
COc1cc(C(=O)Nc2nnc(Cc3ccccc3)s2)cc(OC)c1OC	2.92%

SMILES	% Inhibition @ 10 uM
COCCNC(=O)CCC(=O)n1ncc2ccccc21	-2.85%
CCC(C)c1ccc(NC(=O)c2cccs2)cc1 (centres unmarked)	0.247%
Cc1ccccc1-c1nc(CSCC(=O)NC2CCCCCC2)c(C)o1	8.55%
O=C1CCn2nc(-c3ccccc3)cc2N1	-1.03%
N=C1SC2CS(=O)(=O)CC2N1Cc1ccccc1 (centres unmarked)	0.558%
Cc1cc(C)c2c(-n3cccc3)c(C(=O)NCc3ccccn3)sc2n1	3.87%
O=C(CN1C(=O)C2CC=C(Cl)CC2C1=O)N1CCCC1 (centres unmarked)	2.16%
Brc1ccc(-c2noc(-c3cccs3)n2)cc1	-1.74%
Nc1sc2c(c1C(=O)Nc1ccc(Cl)cc1)CCCCC2	-1.28%
COc1ccc2ncc(S(=O)(=O)c3ccc(Cl)cc3)c(N3CCCCC3)c2c1	-4.34%
Cc1oc2cc3oc(=O)c(CCC(=O)O)c(C)c3cc2c1C	2.01%
COc1ccccc1CNc1nc2nc(C)c(C)c(O)n2n1	-0.671%
Cc1nnc(N2CCCC(C(=O)NCCc3ccccc3)C2)c2nn(-c3ccc(Cl)cc3)c(C)c12 (centres unmarked)	1.74%
Cn1c(=O)c2c(nc(NCc3cccnc3)n2Cc2cccc(C(F)(F)F)c2)n(C)c1=O	1.9%
O=[N+]([O-])c1ccccc1S(=O)(=O)N1CCC(Cc2ccccc2)CC1	-0.712%
Cc1nn(CC(=O)NC2CCCC(C)C2C)c(=O)c2cc3cc(F)ccc3n12 (centres unmarked)	-5.32%
COc1ccc(C(=O)N2CCN(C3CCCC3)CC2)cc1	3.17%
N#Cc1c(N/C=C2/C(=O)NC(=O)N(c3ccccc3)C2=O)sc2c1CCCC2	-4.41%
COc1ccc(S(=O)(=O)Nc2cc(C(F)(F)F)ccc2Cl)cc1	-1.22%
Cc1ccc2[nH]c(SCC(=O)Nc3ccc4c(c3)OCO4)nc2c1C	4.09% and -5.6%
CCc1cccc(C)c1NC(=O)CN(c1ccc(Cl)cc1)S(C)(=O)=O	-10.2%
CCOc1ccc(C2C(C#N)=C(N)N(c3cccc(C)c3)C3=C2C(=O)CCC3)cc1 (centres unmarked)	-2.07%

SMILES	% Inhibition @ 10 uM
CC(=O)Nc1ccc(C(=O)Nc2ccc(F)cc2)cc1	-3.13%
OCC1CCCN(C2CCCCCC2)C1 (centres unmarked)	-0.0908%
Cc1ccc(OCC(O)CN2CCN(Cc3ccc4c(c3)OCO4)CC2)cc1C (centres unmarked)	-4.65%
C=CCOC(=O)c1c2c(n3cc4ccccc4cc13)C(=O)c1ccccc1C2=O	3.87%
CCC(CO)NCC#Cc1ccccc1 (centres unmarked)	-6.92%
COc1ccc(CCNC(=O)CSC2=NS(=O)(=O)c3ccccc32)cc1OC	-12.1%
OC(CNCc1ccco1)c1ccccc1 (centres unmarked)	-6.74%
C=CCn1c2ccccc2n2c(C(C)=O)c(-c3ccccc3)nc12	-2.91%
CCCCNC(=O)CCCn1c(=O)c2cccn2c2cccnc21	2.57%
CC(CC1NCCC2(O)CCCCC12)c1ccccc1 (centres unmarked)	1.54%
NC(=O)Cn1ccn(Cc2ccc(Cl)cc2)c(=O)c1=O	-3.49%
CCc1[nH]c2ccccc2c1C(C)c1cccnc1 (centres unmarked)	-4.49%
c1ccc(-c2nnc(CN3CCN(C(c4ccccc4)c4ccccc4)CC3)o2)cc1	3.74%
Cc1ccccc1C1CC(c2ccc(Br)cc2)Nc2ncnn21 (centres unmarked)	3.32%
Cc1ccc(-n2ncc(C(=O)NCCN3CCCC3)c2C2CCN(C(=O)OC(C)(C)C)CC2)c(C)c1	-3.47%
COc1ccc(N(CC(=O)Nc2ccccc2C)S(C)(=O)=O)cc1Cl	-3.25%
CCOc1ccc(-c2cc(C(=O)NCc3ccco3)[nH]n2)cc1	3.47%
COC(=O)c1cccc(Oc2nc(N3CCOCC3)nc(N3CCOCC3)n2)c1	-4.49%
C=C(C)CSC1=C(C#N)C(c2ccc(C)cc2)CC(=O)N1 (centres unmarked)	0.121%
CCc1nn(C(CC)C(=O)NCC(C)c2ccccc2)c(=O)c2cc3occc3n12 (centres unmarked)	-3.79%
CCN(CC)C(=O)c1c(-c2ccccc2)noc1C	-0.436%
